# Read counts are not given, so values of variants with three or more changes are uncertain.
# B1: CPEB3 Ribozyme (parent)
# chain: UAACAGGGGGCCACAGCAGAAGCGUUCACGUCGCAGCCCCUGUCAGAUUCUGGUGAAUCUGCGAAUUCUGCUGUAUAUCUC
# Variants of: B1
# Test: self-cleavage, relative activity (ratio to wild type); higher = more cleavage; in vitro, sequencing
# Summary of the method: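 After error-prone PCR and barcoding, CPEB3 ribozyme mutant libraries were transcribed with T7 RNA polymerase at 37°C for 5 hours, then given 15 min with DNase I before an EDTA stop, and they cleaved during both steps. Reverse transcription with template switching preceded Illumina sequencing. Relative activity divides a variant's cleaved/total read fraction by the unmutated ribozyme's. At least 5 reads were required per variant, and three batches were averaged.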
row,Variant,self-cleavage
1,C14U A35U U74A,1.17
2,C14U A45C U78C,0.67
3,C14U A45G U66C A77U,0.54
4,C14U A47C U72C U80A,0.94
5,C14U A47U U58A A64G,1.11
6,C14U A56G A57G,0.44
7,C14U A56G A57G U78C,0.49
8,C14U A56G A65U U67C U80C,0.18
9,C14U A56G U66C,0.3
10,C14U A56U U80C,1
11,C14U A57G A77G,1.1
12,C14U A64G U76C,0.74
13,C14U C17A A18U,0.49
14,C14U C17U A56G,0.63
15,C14U C23A U26C U51C,0.08
16,C14U C32A A35U,0.11
17,C14U C34A C39A U60C,0.14
18,C14U C34G A56G A65G,0.21
19,C14U C38U U54C A64G,0.84
20,C14U C40A U41C U51C,0.2
21,C14U C40G A65G U72C A77U,0.08

row,Variant,self-cleavage
1,C14U C40U G70A U72G,0.17
2,C14U C44U G46U A77G,0.14
3,C14U C62G A65U,0.31
4,C14U G16A U41C U48C,0.19
5,C14U G19A A21G,0.4
6,C14U G19A U26A A35G U41C,0.22
7,C14U G19C A64G U78A,0.2
8,C14U G19U U76C U78A,0.07
9,C14U G24A U67G U78C,0.12
10,C14U G24U U49A A65G,0.12
11,C14U G30A U69A U80C,0.06
12,C14U G33A U48C,0.16
13,C14U G46U U76A A77G,0.26
14,C14U U25A A35U C71A,0.06
15,C14U U25C A35G A45U,0.06
16,C14U U25C U43A A57G,0.14
17,C14U U25C U72C,0.22
18,C14U U26A A35G,1.29
19,C14U U26A G33A U48C,0.13
20,C14U U26A U41A,0.09
21,C14U U26C A35G A64G,1.18

row,Variant,self-cleavage
1,C14U U26C A35G U41C U60C U66C,0.18
2,C14U U26C A47U U54C C62U A64G U66C,0.05
3,C14U U26C A56G U69A U80C,0.25
4,C14U U26C G42A U78C,0.15
5,C14U U26C G42U,0.15
6,C14U U26C U49A U51A U54C U60C,0.08
7,C14U U26C U51A A64G,0.55
8,C14U U26C U51C A65G,0.23
9,C14U U26C U54A U69C,0.1
10,C14U U31A A35U U58C U69C,0.05
11,C14U U31A A45G U69C,0.27
12,C14U U31A A56G,0.63
13,C14U U31A C32G U48C,0.09
14,C14U U31A G33U U43G G46U A47U U67C,0.09
15,C14U U31A U43C A45U U80C,0.14
16,C14U U31C U78A,0.73
17,C14U U41A A47G U78C U80C,0.41
18,C14U U41A U51A,0.36
19,C14U U41A U78C,0.16
20,C14U U41C A45U A57G,0.53
21,C14U U41C A45U U54A G61A A65G U78A,0.23

row,Variant,self-cleavage
1,C14U U41C U60C G63U A75G,0.71
2,C14U U41C U69C C71U,0.4
3,C14U U41G A57G U80C,0.18
4,C14U U43A A56G,1.12
5,C14U U43C A56C A64G U66C,0.15
6,C14U U43C U72C A77G,0.92
7,C14U U48A A56G,0.68
8,C14U U49C U69A U74C,0.36
9,C14U U49C U72C,0.37
10,C14U U51A G70C,0.27
11,C14U U51A U60C C62U U78C,0.42
12,C14U U51A U78A,1.03
13,C14U U54A A56G A57C U69A,0.17
14,C14U U54A U78C U80C,1.13
15,C14U U54C A64U U67A,0.29
16,C14U U54C A65U U67C,0.16
17,C14U U60A C79G,1.04
18,C14U U60A U80C,0.81
19,C14U U66A U69C,0.24
20,C14U U66C U67C,0.23
